The whole screen tested about 44,000 compounds, of which about 340 (0.77%) were called active. Not shown: some 5% with an inconclusive outcome. Calls follow the shape of the dose curve; as a rule, active = well fitted inhibition curve with a large enough effect; inconclusive = small, poorly fitted or top-dose-only effect; inactive = flat fitted curve, though single readings scatter. Some of the results follow.
Assay: Acumen qHTS Assay for Inhibitors of the mTORC1 Signaling Pathway in MEF (Tsc2-/-, p53-/-) Cells: Sytravon;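 also: plate controls were DMSO for no effect and rapamycin for full effect; nearly all actives have a fitted effect of over 50% in size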
Conditions: phospho-rpS6 immunofluorescence/PI, 24 h; series mostly up to 38.3 µM; activity change, negative = inhibition: at the top concentration
Procedure, shortened: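 Tsc2-/-, p53-/- MEFs (empty-vector stable line) in DMEM + 10% FBS were treated with compounds 24 h at 37 degree Celsius, fixed, and immunostained for phospho-rpS6 (Alexa-488) with propidium iodide counterstain. Laser-scanning cytometry gave % positive cells, normalized against 7.5 nM rapamycin and DMSO.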

Activity change, negative = inhibition, inactive:
Cc1c(C2=CCN(S(=O)(=O)c3ccc(CC(C)C)cc3)CC2)c2ccccc2n1CC(=O)N1CCCC1 -9.04%
Cc1cccc(N(C)S(=O)(=O)c2cc3c(cc2Cl)NC(=O)CO3)c1 -12%
Cc1nn2c(=O)cc(COC(=O)c3cccc(NC(=O)c4cccs4)c3)nc2s1 5.67%
CCOc1ccc(NS(=O)(=O)c2ccc3[nH]c4c(c3c2)CCCC4)cc1 -7.79%
Cc1ccc(CNS(=O)(=O)c2ccc3c(c2)CCN3S(C)(=O)=O)cc1 1.03%
COc1ccc2nc(N(Cc3cccnc3)C(=O)c3ccc4c(c3)OCCO4)sc2c1 6.55%
COc1ccc(N(CC(=O)N2CCN(c3cccc(C)c3C)CC2)S(=O)(=O)c2c(C)noc2C)cc1 -5.41%
COc1ccc(-c2cn3nc(N4CCC(C(=O)Nc5cccc(C)c5C)CC4)sc3n2)cc1 -0.452%
Cc1c(Cl)cccc1NC(=O)CSc1nc(=O)n(Cc2ccccn2)c2c1CCC2 -4.61%
CCCSc1ncc(Cl)c(C(=O)Nc2sc3c(c2C(=O)NCCOC)CCCC3)n1 2.92%
Cc1ccc(NC(=O)Cn2c(=O)n(CCCCC(=O)NCCc3ccccc3)c(=O)c3ccccc32)c(C)c1 -0.957%
O=C(Nc1ccc(F)cc1F)c1cc(-c2ccccc2O)no1 -3.04%
Cc1nn2c(=O)cc(COC(=O)c3ccc(NC(=O)C4CCCCC4)cc3)nc2s1 0%
CCCCOC(=O)c1ccc(NC(=O)c2cc3c(=O)n4cccc(C)c4nc3n2C)cc1 8.19%
O=C(COc1ccccc1Cl)Nc1ccc2oc(-c3ccccc3F)nc2c1 -1.3%
COCCNC(=O)CCCn1c(=O)c2cc(OC)c(OC)cc2n(CC(=O)Nc2ccc(F)cc2)c1=O 6.52%
Cc1ccc(NC(=O)C(NS(=O)(=O)c2ccc3c(c2)CCC(=O)N3)c2ccccc2)cc1C (centres undefined) 3.83%
O=C(CSc1nc(=O)[nH]c2c1CCCC2)Nc1ccccc1C(F)(F)F 0.327%
CCOC(=O)C1CCN(CCC(=O)Nc2ccc(Br)c(C)c2)CC1 3.25%
CCOc1ccc(CNC(=O)c2ccc(-c3nc(CS(=O)(=O)c4ccccc4)c(C)o3)cc2)cc1 -1.64%
COc1ccc(Nc2cc(C(=O)NC3CCCC3)c3ccccc3n2)c(OC)c1 0.657%
CCNC(=O)Cn1c(-c2cccs2)cc2ccccc21 -15.5%
Cc1ccc(CN(C(=O)Nc2cccc(Cl)c2)c2ccccn2)cc1 -10.3%
COc1ccc(NC(=O)c2nnn(Cc3nc(-c4cc(Br)ccc4OC)oc3C)c2C)cc1 -11.4%
CCOc1cccc(C2c3c(oc4ccc(F)cc4c3=O)C(=O)N2CCc2ccc(OC)cc2)c1 (centres undefined) 10.3%
Cc1oc(C)c2c(=O)cc(-c3ccc4c(c3)OCO4)cc(OC(=O)c3ccccc3Br)c12 -2.6%
COc1ccc(NC(=O)C2CCN(S(=O)(=O)c3ccc4c(c3)CCCC(=O)N4)CC2)cc1Cl -6.99%
Cc1ccc(Cn2c(-c3ccccc3)nc3ccccc32)cc1 -7.28%
COc1cc(/C=C(\C#N)c2nc3ccccc3c(=O)[nH]2)cc(OC)c1OC -5.42%
Cc1ccc(-c2nc3ccccc3n3c(-c4ccccc4)c4c(=O)n(C)c(=O)n(C)c4c23)cc1 4.18%
COc1ccc(S(=O)(=O)N2CCN(c3ccccc3OC)CC2)cc1-c1noc(C)n1 -2.79%
COc1cc(OC)c(NC(=O)c2cc(CN3CCOCC3)on2)cc1Cl -5.54%
Cc1ccc(C)c(Cn2c(=O)n(CCCCC(=O)NCc3ccccc3Cl)c(=O)c3ccccc32)c1 1.81%
CCn1ccc2cc(S(=O)(=O)N3CCC(C(=O)NCc4cccc(C)c4)CC3)ccc21 0.618%
CCCCNC(=O)c1cc(Sc2ccc(OCC)cc2)nc2ccccc12 14%
CCOc1ccccc1NC(=O)Cn1ccn(-c2ccccc2)c(=O)c1=O 5.3%
CCn1cc(C(=O)NCc2ccc(C)cc2)c(=O)c2cc(S(=O)(=O)N3CCC(C)CC3)ccc21 -3.94%
O=C(NCCSCc1ccc(Cl)cc1)C1CCN(S(=O)(=O)Cc2ccccc2)CC1 1.53%
Cc1ccc(-c2c(C(=O)Nc3ccc(F)c(F)c3)oc(=O)c3ccccc23)cc1 -0.0361%
CN(C)c1ccc(CNC(=O)c2cc3cc(S(=O)(=O)N4CCCCC4)ccc3n2C)cc1 0%
O=C(CN1C(=O)C2CCCCN2c2ccc(C(=O)N3CCCC3)cc21)NCc1cccc(Cl)c1 (centres undefined) 3.82%
Cc1ccc(Cl)c2sc(NC(=O)CS(=O)(=O)c3ccc(Cl)cc3)nc12 -5%
CCOc1ccc(CNS(=O)(=O)c2c(C(=O)N3CCCCCC3)c(C)n(C)c2C)cc1OC 0%
Cc1ccc(NC(=O)Nc2nnc(N3CCCC3)s2)c(C)c1 1.16%
Cc1ccc(CNC(=O)Cc2coc3cc(C)cc(C)c23)cc1 4.9%
COc1ccc(-c2cn3nc(N4CCC(C(=O)Nc5cccc(Cl)c5)CC4)sc3n2)cc1 -5.68%
CCCCN(C)C(=O)C1CCCN(c2ncnc3onc(-c4ccc(F)cc4)c23)C1 (centres undefined) 0.67%
CCN(CC)S(=O)(=O)c1ccc2c(c1)c(=O)c(C(=O)NCc1ccccc1)cn2C -7.77%
COc1ccc(CNC(=O)CCC(=O)N2CC3CCCN3c3ccccc32)cc1 (centres undefined) 2.9%
COc1ccccc1CNC(=O)c1ccc(CS(=O)(=O)c2ccccc2C)o1 -2.48%
O=C(NCc1ccccc1)c1ccc(NC(=O)c2nsc3ccccc23)cc1 -17.5%
COc1cc(CN(CC2CCCO2)C(=O)c2ccc(F)cc2)cc(OC)c1OC (centres undefined) 1.98%
CC(=O)N1CCCc2cc(S(=O)(=O)N3CCC(C(=O)NCc4ccc(N(C)C)cc4)CC3)ccc21 -11.2%
CCOc1cccc(CC(=O)Nc2ccc3nc(N4CCCCC4)cc(C)c3c2)c1OCC -9.16%
CCCNC(=O)c1ccc(-n2c(-c3ccccc3)cc3c2CCCCC3)cc1 -18.3%
Cn1c(=NC(=O)c2ccc3c(c2)OCCO3)sc2cc(S(C)(=O)=O)ccc21 2.83%
COc1ccccc1CNC(=O)C(CC(C)C)NS(=O)(=O)c1ccc2c(c1)oc(=O)n2C (centres undefined) -4.41%
Cc1ccccc1-c1noc(C(C)NC(=O)c2ccco2)n1 (centres undefined) 4.09%
CCC(=O)N1CCc2cc(S(=O)(=O)NCCC(=O)NCc3ccccc3Cl)ccc21 3.57%
CCOC(=O)c1ccc(NC(=O)C2CCCN(c3ccc(Sc4ccc(C)cc4)nn3)C2)cc1 (centres undefined) -8.12%
Cc1cc(Br)ccc1NC(=O)CCS(=O)(=O)c1cccc2nsnc12 0%
CC(=O)NCCNc1nc2c(S(=O)(=O)c3ccc(C)c(C)c3)nnn2c2ccc(Cl)cc12 -1.41%
COC(=O)c1ccc(-n2nnc(-c3nc(-c4ccc5c(c4)OCO5)no3)c2C)cc1 -5.65%
CC(C)c1nc2ccc(C(=O)NCCCN3CCN(c4ccccc4F)CC3)cc2o1 0.104%
CCN(C(=O)CN(C)S(=O)(=O)c1ccc2c(c1)c(=O)n(C)c(=O)n2C)c1ccc(OC)cc1 -9.94%
Cc1ccc(C(C)C)c(OCC(=O)Nc2ccc(S(=O)(=O)Nc3onc(C)c3C)cc2)c1 0.617%
CCOc1ccc2nc(NC(=O)CS(=O)(=O)c3ccc(Cl)cc3)sc2c1 2.59%
Cc1ccc(C2c3c(oc4ccccc4c3=O)C(=O)N2c2ccc(C)cn2)cc1 (centres undefined) 1.11%
N#Cc1ccc(CN2C(=O)c3ccccc3Sc3ccc(C(=O)OCc4ccco4)cc32)cc1 -0.607%
COc1ccc(NC(=O)c2cc3nc(-c4ccc(Cl)c(Cl)c4)cc(C(F)(F)F)n3n2)c(OC)c1 1.38%
CCOc1ccccc1NC(=O)N1CCC(n2c(C)nc3cccnc32)CC1 4%
Cc1sc2ncn(CC(=O)Nc3ccc(F)cc3F)c(=O)c2c1S(=O)(=O)N1CCC(C)CC1 -5.06%
COc1ccc(-n2nc3c(N4CCCC(C(=O)NCc5ccc(C)cc5)C4)nnc(C)c3c2C)cc1 (centres undefined) -19%
Cc1c(-c2nnc(SCC(=O)Nc3ccccc3F)o2)nnn1-c1ccc(F)cc1 -0.823%
COc1ccc(CNC(=O)CCc2cn(C)c3ccccc23)cc1 3.64%
Cc1ccc(CCNC(c2ccc(F)cc2)c2nnc(-c3ccccc3Cl)o2)cc1 (centres undefined) -22.3%
COc1cccc(N2CCN(S(=O)(=O)c3cn(C)c(C)n3)CC2)c1 -3.92%
CCn1c(C(=O)N2CCC(C(=O)N3CCN(c4cc(C)ccc4C)CC3)CC2)cc2sccc21 -6.15%
COc1ccc(CNC(=O)c2ccc3nc(CCc4ccccc4)oc3c2)cc1OC -7.81%
CCOc1ccc(CNC(=O)c2cccc(NC(=O)N3CCSc4ncccc43)c2)cc1 -0.882%
CC(=O)N1CCc2cc(S(=O)(=O)NC(CC(C)C)C(=O)Nc3ccc(C(C)C)cc3)ccc21 (centres undefined) 0.869%
CC(C)Cn1cc(NC(=O)Nc2cccc(C(F)(F)F)c2)c2ccccc2c1=O 0.325%
CCOC(=O)c1c(C)sc(-c2c(-c3ccc4c(c3)OCCO4)[nH]c3c2c(=O)n(C)c(=O)n3C)c1O -0.745%
Cc1cc(-c2ccc(C)c(S(=O)(=O)N3CCC(C)CC3)c2)on1 -1.14%
CC(=O)N1c2ccc(S(=O)(=O)N3CCCCCC3)cc2CC1C(=O)NC(C)C (centres undefined) 2.64%
CCOC(=O)N1CCc2c(sc3c2c(=O)n(Cc2ccccc2)c(=O)n3Cc2cc(C)ccc2C)C1 0.844%
CC(C)CC(=O)Nc1nc2c(s1)CC(C(C)(C)C)CC2 (centres undefined) 7.85%
CCc1nn(CCCC(=O)N2CCN(c3cc(Cl)ccc3C)CC2)c(=O)c2cc3occc3n12 -1.17%
COc1ccc(CC(=O)NC2CC(=O)N(c3cccc(F)c3)C2)cc1OC (centres undefined) -1.62%
CCOC(=O)c1c(C)n(S(=O)(=O)c2ccc(C)cc2C)c2ccc(NS(=O)(=O)c3ccc(C)cc3C)cc12 1.5%
COc1ccccc1Nc1sc(C(=O)c2ccc3c(c2)OCO3)c(N)c1S(=O)(=O)c1ccccc1 1.01%
Cc1ccc(C2=Nc3ccccc3N(CC(=O)Nc3ccccc3F)C(=O)C2)cc1C -23.2%
CCC1Oc2ccc(C)cc2N(CC(=O)NCc2ccc(OC)cc2)C1=O (centres undefined) 0.0473%
CCCCN1C(=O)c2[nH]nc(-c3ccccc3O)c2C1c1ccc(C(C)(C)C)cc1 (centres undefined) -3.26%
